Assay results taken from the supplement of paper PMC8813932.
Where a name gives a salt, the structure may show the parent alone. ± gives the standard deviation of the averaged measurements. This is one part of the list. Repeats are few or missing, and single values can be far off.

Key:
Experiment in all cases: log2 surviving fraction relative to plate median (drug vs vehicle, or drug+dl922-947 vs dl922-947 alone); ovarian cancer lines: OVCAR4 is platinum-sensitive while Ov4Cis resists cisplatin and Ov4Carbo carboplatin; higher = more cell survival
Settings in all cases: compound concentration: 10 uM, 192 h
[1] = system: OVCAR4
[2] = system: Ov4Carbo
[3] = system: Ov4Cis
[4] = dl922-947 oncolytic adenovirus co-treatment: MOI 10
[5] = dl922-947 oncolytic adenovirus co-treatment: none

| SMILES | log2 surviving fraction [1, 4] | log2 surviving fraction [1, 5] | log2 surviving fraction [2, 4] | log2 surviving fraction [2, 5] | log2 surviving fraction [3, 4] | log2 surviving fraction [3, 5] |
| --- | --- | --- | --- | --- | --- | --- |
| CCOC(=O)n1ccn(C)c1=S [Carbimazole] | 0.169 ± 0.68 | -0.522 ± 0.4 | -0.525 | -0.626 | -0.378 | -0.221 |
| C=C1CC[C@H](O)C/C1=C/C=C1\CCC[C@]2(C)[C@@H]([C@H](C)CCCC(C)C)CC[C@@H]12 [Vitamin D3 (Cholecalciferol)] | -0.446 ± 0.31 | -0.603 ± 0.29 | 0.322 | -0.744 | 0.22 | 0.138 |
| CC(C)C[C@H](NC(=O)[C@@H](O)[C@H](N)Cc1ccccc1)C(=O)O [Ubenimex (Bestatin)] | -0.172 ± 0.48 | -0.684 ± 0.11 | -0.174 | -1.42 | -0.187 | -1.09 |
| CC(C)Cc1ccc(C(C)C(=O)O)cc1 (stereo not drawn) [Ibuprofen (Advil)] | 0.7 ± 0.19 | 0.467 ± 0.56 | -0.299 | 0.143 | 0.23 | 0.997 |
| CCCCC(CC)CNC(=N)NC(=N)NCCCCCCNC(=N)NC(=N)NCC(CC)CCCC (stereo not drawn) [Alexidine HCl] | -10.8 ± 0.99 | -12.5 ± 7.7 | -8.99 | -12.3 | -10.4 | -15.9 |
| CN(C)CCCN1c2ccccc2Sc2ccc(C(F)(F)F)cc21 [Triflupromazine HCl] | -1.95 ± 1.3 | 0.377 ± 0.67 | -4.86 | -0.248 | -2.37 | -2.9 |
| NC[C@H]1CC[C@H](C(=O)O)CC1 [Tranexamic acid (Transamin)] | -0.385 ± 0.89 | 1.01 ± 0.12 | 1.41 | -1.98 | 0.259 | 0.000549 |
| Cc1cc(O)ccc1Cl [Chlorocresol] | -0.202 ± 0.42 | 0.0685 ± 1.3 | -0.562 | -0.24 | 0.19 | -0.491 |
| CN1Cc2c(N)cccc2C(c2ccccc2)C1 (stereo not drawn) [Nomifensine Maleate] | -1.38 ± 0.37 | -1.1 ± 0.82 | -2.14 | -0.62 | -1.73 | -0.42 |
| CN(C)C(=N)NC(=N)N [Metformin hydrochloride (Glucophage)] | 0.5766 ± 3.7e-05 | 0.0251 ± 0.031 | 0.568 | 0.449 | 0.415 | 0.765 |
| CC(=O)[C@@]1(O)CC[C@H]2[C@@H]3CCC4=CC(=O)CCC4=C3[C@@H](c3ccc(N(C)C)cc3)C[C@@]21C [Ulipristal] | 0.519 ± 0.53 | -1.2 ± 0.092 | -0.424 | -1.84 | -0.351 | 0.143 |
| CN1CCC[C@H]1c1cccnc1 [Nicotine Ditartrate] | 0.343 ± 0.7 | -0.485 ± 1.6 | -0.763 | 0.521 | 1.3 | 0.167 |
| Nc1nc(=O)n([C@@H]2CS[C@H](CO)O2)cc1F [Emtricitabine (Emtriva)] | -0.00922 ± 0.36 | -0.189 ± 0.98 | 1.19 | 0.328 | 0.571 | -0.303 |
| CN(C)CCCSC(=N)N [Dimaprit 2HCl] | 0.418 ± 0.035 | 0.345 ± 0.13 | -0.105 | -0.151 | -0.444 | 0.52 |
| CNC(=O)c1ccc(N2C(=S)N(c3ccc(C#N)c(C(F)(F)F)c3)C(=O)C2(C)C)cc1F [MDV3100 (Enzalutamide)] | 0.869 ± 1.4 | 3.19 ± 3.7 | 0.354 | 1.2 | -0.0594 | 0.619 |
| N=C(N)NS(=O)(=O)c1ccc(N)cc1 [Sulfaguanidine] | 0.247 ± 0.22 | -0.504 ± 0.86 | 0.503 | -0.0532 | -0.599 | 0.0985 |
| Nc1nnc(-c2cccc(Cl)c2Cl)c(N)n1 [Lamotrigine] | 0.184 ± 0.69 | 0.0251 ± 1.2 | 0.206 | -0.405 | -0.263 | -0.832 |
| CN(C)CCC=C1c2ccccc2CCc2ccccc21 [Amitriptyline HCl] | -2.35 ± 0.56 | -1.3 ± 1.3 | -2.76 | -0.422 | -3.02 | -2.96 |
| O=C[C@H](O)[C@@H](O)[C@H](O)CO [Xylose] | -0.00149 ± 0.11 | -0.467 ± 0.47 | 0.568 | -0.124 | -0.745 | -0.692 |

| SMILES | log2 surviving fraction [1, 4] | log2 surviving fraction [1, 5] | log2 surviving fraction [2, 4] | log2 surviving fraction [2, 5] | log2 surviving fraction [3, 4] | log2 surviving fraction [3, 5] |
| --- | --- | --- | --- | --- | --- | --- |
| CN1CCC(=C2c3ccccc3CCc3sccc32)CC1 [Pizotifen malate] | -1.12 ± 1.2 | -0.875 ± 0.54 | -2.69 | -1.15 | -3.35 | -1.55 |
| OC(CNCC(O)C1CCc2cc(F)ccc2O1)C1CCc2cc(F)ccc2O1 (stereo not drawn) [Nebivolol (Bystolic)] | -2.5 ± 0.85 | -3.84 ± 2.5 | -3.4 | -4.38 | -6.76 | -7.88 |
| C[C@H](CCC(=O)O)[C@H]1CC[C@H]2[C@@H]3[C@@H](O)C[C@@H]4C[C@H](O)CC[C@]4(C)[C@H]3CC[C@]12C [Ursodiol (Actigal Urso)] | -0.251 ± 0.043 | 0.598 ± 0.39 | 2.75 | 0.804 | 1 | 0.8 |
| Cc1ncc(C[n+]2csc(CCO)c2C)c(N)n1 [Thiamine HCl (Vitamin B1)] | -0.528 ± 0.33 | -0.291 ± 0.69 | 0.047 | -1.19 | 0.499 | -0.621 |
| O=C1N=C(O)NC1(c1ccccc1)c1ccccc1 [Phenytoin sodium (Dilantin)] | -1.05 ± 0.86 | -0.268 ± 1 | -1.27 | 0.393 | -0.924 | -0.23 |
| CCOC(=O)[C@H](CCc1ccccc1)N[C@@H](C)C(=O)N1CCC[C@H]1C(=O)O [Enalapril maleate (Vasotec)] | 0.268 ± 0.27 | -0.0481 ± 0.58 | -0.308 | 0.565 | -0.257 | 0.479 |
| CC(C)(C)c1cc(C(C)(C)C)c(NC(=O)c2c[nH]c3ccccc3c2=O)cc1O [Ivacaftor (VX-770)] | -1.29 ± 0.057 | -7.8 ± 4.6 | -0.0134 | -11.2 | -4.31 | -11.7 |
| CC(=O)S[C@@H]1CC2=CC(=O)CC[C@]2(C)[C@H]2CC[C@@]3(C)[C@@H](CC[C@@]34CCC(=O)O4)[C@H]12 [Spironolactone] | 0.313 ± 0.56 | -0.974 ± 0.49 | -0.335 | 0.369 | 0.154 | -0.585 |
| COc1cnc(NS(=O)(=O)c2ccc(N)cc2)nc1 [Sulfameter (Bayrena)] | -0.58 ± 0.69 | 0.065 ± 0.72 | 0.041 | 0.000634 | 0.386 | 0.273 |
| CCC(=O)O[C@]1(C(=O)SCF)[C@H](C)C[C@H]2[C@@H]3C[C@H](F)C4=CC(=O)C=C[C@]4(C)[C@@]3(F)[C@@H](O)C[C@@]21C [Fluticasone propionate (Flonase, Veramyst)] | 0.81 ± 0.095 | 0.296 ± 0.56 | 1.01 | 0.239 | 1.22 | -0.754 |
| O=C1[C@@H]2[C@H]3CC[C@H](C3)[C@@H]2C(=O)N1C[C@@H]1CCCC[C@H]1CN1CCN(c2nsc3ccccc23)CC1 [Lurasidone HCl] | -1.11 ± 0.5 | -0.259 ± 0.73 | -1.6 | -0.731 | -1.14 | -3.91 |
| COc1ccc(C2CNC(=O)C2)cc1OC1CCCC1 (stereo not drawn) [Rolipram] | 0.395 ± 0.36 | -1.05 ± 2.1 | 0.155 | 1.95 | 0.459 | 1.03 |
| C[N+](C)(C)CCCCCCCCCC[N+](C)(C)C [Decamethonium bromide] | -0.365 ± 0.41 | -0.55 ± 0.71 | 0.213 | 0.231 | 0.0586 | -1.64 |
| CCCCCCCCCCCCCCSCC(=O)OC[C@H](COP(=O)([O-])OCC[N+](C)(C)C)OC(=O)CSCCCCCCCCCCCCCC [Phosphatidylcholine] | -0.156 ± 0.79 | 0.439 ± 0.7 | -0.627 | -0.0971 | -0.481 | -0.086 |
| Cc1cc(=O)[nH]c(=S)[nH]1 [Methylthiouracil] | 0.155 ± 0.37 | 0.359 ± 0.48 | 0.297 | -0.000826 | 0.0813 | 0.5 |
| Cc1ccc(-c2cc(C(F)(F)F)nn2-c2ccc(S(N)(=O)=O)cc2)cc1 [Celecoxib] | 1.7 ± 0.28 | 2.87 ± 3.1 | 1.93 | -0.711 | 1.38 | 1.46 |
| COC(=O)/C=C/C(=O)OC [Dimethyl Fumarate] | 0.00104 ± 0.68 | 0.351 ± 0.72 | -0.713 | 0.11 | 1.03 | 0.88 |
| CC(=O)O[C@H]1C[C@@H]2CC[C@@H]3[C@H](CC[C@@]4(C)[C@H]3C[C@H]([N+]3(C)CCCCC3)[C@@H]4OC(C)=O)[C@@]2(C)C[C@@H]1[N+]1(C)CCCCC1 [Pancuronium (Pavulon)] | 0.204 ± 0.059 | -0.251 ± 0.038 | -0.0745 | -0.248 | 0.336 | -0.00891 |
| O=C(N/N=C/c1ccc([N+](=O)[O-])o1)c1ccc(O)cc1 [Nifuroxazide] | 0.302 ± 0.16 | 0.226 ± 0.6 | 0.743 | -0.658 | 0.428 | 0.296 |
